According to PubChem BioAssay AID1345083 (National Center for Advancing Translational Sciences (NCATS), 2018):
Hit rate of the full screen: of about 94,000 compounds, about 6,200 (6.6%) were called active. This list was built around the results that the source calls inconclusive (neither active nor inactive); the mix of calls is not that of the screen. Calls follow the shape of the dose curve; as a rule, active = well fitted inhibition curve with a large enough effect; inconclusive = small, poorly fitted or top-dose-only effect; inactive = flat fitted curve, though single readings scatter. Where the call is inconclusive, the potency comes from a doubtful curve fit.

Assay: Cytotoxic Profiling in HEK 293 Cell Line of Diverse Libraries Using Quantitative High-Throughput Screening; also: nearly all actives have a fitted effect of over 60% in size
Conditions: HEK 293 viability, ATP luminescence (CellTiter-Glo), 48-72 h; activity change, negative = cytotoxicity: at 115 µM (top of the series) unless noted; series mostly up to 115 µM
How it was run: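 HEK 293 seeded at 250 cells/well receive compound via pintool. After 48 or 72 hr at 37 degree Celsius, 5% CO2 and 95% humidity, CellTiter-Glo is dispensed and luminescence read following 10 min at room temperature.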
% is scaled to controls: 0 for no effect and ±100 for the full control effect; potency is read from the fitted curve at half-maximal effect; tags tell the direction and shape of the fitted curve.

| Compound | Potency | activity change, negative = cytotoxicity | outcome |
| --- | --- | --- | --- |
| O=C(NCC(F)(F)F)c1cn2cc(-c3ccccc3)sc2n1 | inconclusive: 100 µM [inhibitor, partial curve, poor fit] | – | – |
| COc1ccc(C(=O)N2CCCC2c2nc(CCOc3cccc(C)c3)no2)cn1 (configuration not stated) | inconclusive: 89.1 µM [inhibitor, single point] | – | – |
| NC(=O)c1cccnc1OC1CCN(C(=O)c2cccs2)C1 (configuration not stated) | – | inactive: 4.11% | – |
| COc1ccc(CN2CCN(c3nc4ccccc4o3)CC2CCO)c(F)c1 (configuration not stated) | inconclusive: 31.6 µM [inhibitor, full curve, poor fit] | – | – |
| COc1ccc(-c2ccc(C(=O)N3CCCC3)c(Cl)c2)nn1 | inconclusive: 10 µM [inhibitor, full curve, poor fit] | – | – |
| CCN(CC1CCCO1)C(=O)c1ccc2nc(-c3ccc(F)cc3)cn2c1 (configuration not stated) | inconclusive: 89.1 µM [inhibitor, single point] | – | – |
| CC1CCN(CCNC(=O)c2cc3cn(C(C)C)cc3s2)CC1 | – | inactive: -4.38% | – |
| COc1cccc(CN2CCc3c(cc(C(=O)Nc4cc(C)ccc4C)n3C)C2)c1 | inconclusive: 44.7 µM [inhibitor, partial curve, poor fit] | – | – |
| CN1CC(C(=O)NCc2cccs2)NC1=O (configuration not stated) | – | inactive: 0.5% [at 172 µM] | – |
| Cc1ccc([S+](=O)([O-])N2CC3(Cc4ccccc4N([S+](C)(=O)[O-])C3)C2)cc1 | inconclusive: 79.4 µM [inhibitor, partial curve] | – | – |
| CN1CCC(OC2CCN(C(=O)c3ccc(F)c(F)c3)CC2)CC1 | – | inactive: -19.7% | – |
| COc1ccc(N2Cc3c(NCCc4ccc(F)cc4)ncnc3N(C)CC2=O)cc1 | inconclusive: 50.1 µM [inhibitor, partial curve, poor fit] | – | – |
| c1ccc(-c2cc(NCCCOc3cccnc3)n3nccc3n2)cc1 | inconclusive: 56.2 µM [inhibitor, partial curve, poor fit] | – | – |
| COc1ccc(OCC2(C)COc3ccc(C(=O)N(C)C)cc3N2)cc1 (configuration not stated) | inconclusive: 89.1 µM [inhibitor, partial curve, poor fit] | – | – |
| COc1cc(NC(=O)c2cc3c(N4CCSCC4)nc(C)cn3n2)cc(OC)c1OC | active: 35.5 µM | – | – |
| COc1ccc(C(=O)N2CCCN(c3nccc(Nc4ccc(C)cc4)n3)C2)cc1 | active: 11.2 µM | – | – |
| COC1CCN(C(=O)c2coc(COc3ccc(F)cc3Cl)n2)CC1 | – | inactive: -1.53% | – |
| Cc1nn(-c2ccccc2)c2c1C(C(C)C)N(C1CCN(C(=O)c3ccccn3)C1)C2=O (configuration not stated) | active: 44.7 µM | – | – |
| Cc1ccc(C(=O)N2CCCN(c3ccc4nnc(C)n4n3)CC2)cc1 | – | inactive: -0.204% | – |
| CCC(=O)N1CCN(c2nc3c(s2)CC(C(=O)Nc2ccc(CC)cc2)CC3)CC1 (configuration not stated) | inconclusive: 56.2 µM [inhibitor, partial curve, poor fit] | – | – |
| CCCCNC(=O)C1CCN(C(=O)c2ncn3c2COC(c2ccc(OC)cc2)C3)CC1 (configuration not stated) | – | inactive: -4.8% | – |
| COc1ccc2cc1Nc1ccc(cc1)C[C@H](NCc1cccc(O)c1)C(=O)N(C)[C@@H](C(=O)Nc1ccccc1)C2 | inconclusive: 50.1 µM [inhibitor, partial curve, poor fit] | – | – |
| O=C1COc2ccc(-c3cccc(O)c3)nc2CN1Cc1ccc(C(F)(F)F)cc1 | inconclusive: 79.4 µM [inhibitor, partial curve, poor fit] | – | – |

| Compound | Potency | activity change, negative = cytotoxicity | outcome |
| --- | --- | --- | --- |
| O=C(NCc1cccc(Cl)c1)c1cc(-c2ccsc2)c2nncn2n1 | – | inactive: 3.95% | – |
| COCCCNC(=O)C(C)(C)Oc1nn(Cc2cccc(Cl)c2)c2ccccc12 | inconclusive: 39.8 µM [inhibitor, partial curve, poor fit] | – | – |
| COc1cccc(-c2ccc(CN3CCN(c4ccc(Cl)nn4)C(=O)C3)cc2)c1 | inconclusive: 35.5 µM [inhibitor, partial curve] | – | – |
| O=C(COc1ccc(F)cc1)N1CCCN(c2cc(-c3ccc(Br)cc3)[nH]n2)CC1 | active: 44.7 µM | – | – |
| O=C(Cc1ccc(O)cc1)N1Cc2ccccc2CC2(CCN(Cc3ccncc3)C2)C1 (configuration not stated) | – | inactive: -27.1% | – |
| Cc1ccc(CN2CCC3(CC2)CCN(Cc2ccco2)CC3CO)s1 (configuration not stated) | inconclusive: 79.4 µM [inhibitor, single point] | – | – |
| CCOc1cc(=O)n2c(c1C(=O)Nc1ccc(F)cc1Cl)CCCC2 | inconclusive: 50.1 µM [inhibitor, partial curve, poor fit] | – | – |
| CCN1CCC(N2CCCC(C(=O)NCc3ccccc3)CCNC(=O)CC2)CC1 (configuration not stated) | – | – | inactive |
| O=C1CC(c2ccccc2)N(C(=O)CNC(=O)c2n[nH]c3ccccc23)CCCCCN1 (configuration not stated) | – | inactive: -6.42% | – |
| N#Cc1cccc(-c2n[nH]c3c2CC(=O)N(Cc2ccccc2)C3)c1 | inconclusive: 112 µM [inhibitor, partial curve, poor fit] | – | – |
| CN(C)C(=O)C(C)(C)Oc1nn(Cc2cccc(Cl)c2)c2ccccc12 | active: 79.4 µM | – | – |
| COc1ccc(NC(=O)N[C@@H]2C=C[C@@H](c3c(C)nn(-c4ccccn4)c3C)C2)cc1 | active: 70.8 µM | – | – |
| CCOc1ccc(C(=O)N2CCC(n3cc(-c4nc(CC)no4)nn3)C2)cc1 (configuration not stated) | inconclusive: 22.4 µM [inhibitor, full curve] | – | – |
| CC1(C)C(=O)N(CC2CCOCC2)[C@H]2CN(Cc3ccccc3O)C[C@H]2[S+]1(=O)[O-] | – | inactive: -20.2% [at 172 µM] | – |
| O=C(COc1ccc(NC(=O)C2CC2)cn1)NCc1ccc(F)cc1F | – | inactive: 3.7% | – |
| Cc1nc(C2(C)CCN(S(=O)(=O)c3c(C)c(C)cc(C)c3C)CC2)no1 | inconclusive: 56.2 µM [inhibitor, partial curve, poor fit] | – | – |
| Cc1nc(CN2Cc3nc(-c4ccc(Cl)cc4)ccc3OCC2=O)cs1 | inconclusive: 100 µM [inhibitor, partial curve] | – | – |
| COc1ccc(C(=O)N2CCN(c3ccc4nnc(C)n4n3)CC2)cc1 | – | inactive: -8.01% | – |
| O=C(C1CC1)N1CCCC(CN2CCOCC2)CC1 (configuration not stated) | – | inactive: -32.2% | – |
| CC(=O)c1ccc(NC(=O)O[C@@H]2CO[C@H]3[C@@H]2OC[C@@H]3NC(=O)c2ccc(C)cc2)cc1 | inconclusive: 89.1 µM [inhibitor, partial curve, poor fit] | – | – |
| COc1cccc(-c2cccc(C(=O)N3CCC4(CCCN(C)C4=O)C3)c2)c1 (configuration not stated) | inconclusive: 35.5 µM [inhibitor, partial curve, poor fit] | – | – |
| CCC(=O)N1CCc2c(sc3ncnc(N(C)Cc4ccccc4)c23)C1 | inconclusive: 35.5 µM [inhibitor, partial curve, poor fit] | – | – |
| O=C(Nc1ccc2c(N3CCCC3)ncnc2c1)c1ccccc1Cl | inconclusive: 8.91 µM [inhibitor, full curve, poor fit] | – | – |

| Compound | Potency | activity change, negative = cytotoxicity | outcome |
| --- | --- | --- | --- |
| CN(c1ccccc1)c1ccc2nnc(-c3cc(C(=O)NCc4ccncc4)ccn3)n2n1 | active: 70.8 µM | – | – |
| COc1cc(F)ccc1-c1ccnc2nc(C(C)C)nn12 | inconclusive: 56.2 µM [inhibitor, partial curve, poor fit] | – | – |
| CCOCCNC(=O)C1CCCN(Cc2cccc(-c3ccccc3OC)c2)C1 (configuration not stated) | active: 39.8 µM | – | – |
| CCn1nccc1C(=O)N1CCC(CCOc2ccc(F)cc2)C1 (configuration not stated) | active: 35.5 µM | – | – |
| Cc1ccc(S(=O)(=O)N2CCc3c(C(=O)NCc4ccccn4)cccc32)cc1 | inconclusive: 50.1 µM [inhibitor, partial curve, poor fit] | – | – |
| CCn1cc(C(=O)N2C[C@@H](COC)[C@H](c3nc(C4CC4)no3)C2)cn1 | – | inactive: -4.76% | – |
| N#Cc1ccc(C(=O)N2CCO[C@@H](COc3ccccn3)[C@@H]2c2ccccc2)cc1 | inconclusive: 3.55 µM [inhibitor, full curve, poor fit] | – | – |
| COc1ccc2[nH]c(=O)c(CCC(=O)NCC(N)=O)cc2c1 | inconclusive: 89.1 µM [inhibitor, partial curve, poor fit] | – | – |
| O=C(NCc1ccccn1)C1Cn2cccc2C(=O)N1Cc1ccccc1 (configuration not stated) | – | – | inactive |
| CCOc1ccc2c(n1)CCN(C(=O)Cc1ccc(C)cc1)C2 | inconclusive: 70.8 µM [inhibitor, partial curve, poor fit] | – | – |
| O=C(C1CCCCCC1)N1CCC(n2cc(-c3ccccc3)nn2)CC1 | inconclusive: 56.2 µM [inhibitor, partial curve, poor fit] | – | – |
| Cc1ccc(OCc2nc(C3CN(C(=O)c4cc(C)n(C)n4)C3)no2)cc1 | inconclusive: 44.7 µM [inhibitor, partial curve, poor fit] | – | – |
| COc1ccc(CCNC(=O)c2noc(-c3ccc(F)cc3)n2)cc1OC | inconclusive: 56.2 µM [inhibitor, partial curve, poor fit] | – | – |
| c1cc(N2CCOCC2)ncc1-c1noc([C@@H]2CCCN2)n1 | – | inactive: 1.26% [at 172 µM] | – |
| COCCN1CCOC2(CCN(C(=O)c3ccc(Oc4ccccc4)cc3)CC2)C1=O | inconclusive: 89.1 µM [inhibitor, partial curve, poor fit] | – | – |
| O=C(NC1CC1)c1ccc2nnc(-c3cccc(C(F)(F)F)c3)n2c1 | – | inactive: -23.7% | – |
| CN(CCc1ccccn1)[C@H]1[C@@H]2OC[C@@H](O2)[C@@H](NCc2ccc(-c3ccccc3)cc2)[C@@H]1O | inconclusive: 50.1 µM [inhibitor, partial curve, poor fit] | – | – |
| Cn1c(Cn2cccn2)nnc1C1CCCN(Cc2nc(C(N)=O)no2)C1 (configuration not stated) | – | inactive: 4.49% | – |
| O=C(NCc1ccc(F)cc1)c1nc(-c2cccnc2)c2cnccn12 | inconclusive: 89.1 µM [inhibitor, partial curve] | – | – |
| CN1CCC2(C1)CN(Cc1ccccc1)c1ccc(C(=O)NC3COC3)cc12 (configuration not stated) | inconclusive: 35.5 µM [inhibitor, full curve] | – | – |
| O=C(c1ccc(F)c(F)c1)N1CCN(c2cc(-c3cccs3)[nH]n2)CC1 | inconclusive: 50.1 µM [inhibitor, partial curve, poor fit] | – | – |
